B1: chr1:31434308:31434366:+|3pUTR|ENSG00000168528|msi1_unk|total|mutant (ssRNA)
RNA: GGGAGUUCUACAGUCCGACGAUCGCCAGGCUGAGCCCCCACCCCUGCCCCAGCUCCAGGACCUGCCCCUGAGCCGGGCCUUCCCGUCGCCGUGCCUUCAGGGUCCGAGGAGCAUCAGGCUCCUGCAGAGCCCCAUCCCCCCGCCAACAGAGGAUUGAGCAUCA
B2: chr20:3582170:3582271:+|CDS|ENSG00000088812|msi1|total|mutant (ssRNA)
RNA: GGGAGUUCUACAGUCCGACGAUCGGCCUUCGGAAGAUCAAUGUGUCCUACUGGUGCUGGGAAGAUAUGUCCCCAUUUACAAACCGUUUACUACAGUGGAUGCCGUCUGAGCCCAGUGAUGCUGGAUUCUGUGGAAUUUUAUCACAACAGAGGAUUGAGCAUCA
B3: chr7:20413385:20413486:+|3pUTR|ENSG00000105855|msi1|FALSE|unique (ssRNA)
RNA: GGGAGUUCUACAGUCCGACGAUCACUGAAGAUAUCUUUAUGCAAGACAAGAGUCAGCCAUCAGACACUGAAAUAUAUUAUGAUAGAUUAUGAAGAAUUUUCUCUGUAGAAUUAUAUUCUUCCUGGAACCUGGUAGAGUAGAUUCAACAGAGGAUUGAGCAUCA
B4: chr12:65247554:65247656:+|3pUTR|ENSG00000174106|unk|total|mutant (ssRNA)
RNA: GGGAGUUCUACAGUCCGACGAUCCAGUAUUUAAUUUGUUUCAGUAAACUUACUUUAUUACUGUUUAUGAUUUCAGAUAAAAACCGUUGCUGAGUAAAUUUUACUUGUAAUCUACAAUUGGCUUUUUAAAAAUAACCUGUUGAUCAACAGAGGAUUGAGCAUCA
B5: chr2:224378697:224380208:-|three_prime_utr|ENSG00000124019|control|control|control (ssRNA)
RNA: GGGAGUUCUACAGUCCGACGAUCUCCUUCAUCUGCAAGUUCAGGGUGAAGAAAAAGAAGAAGAUGAAGAAGAAUUCUUUAUAUAGCAUAAAAUAAAUGUGGUUUUCUAAAACACAAGAUCAGAUAAAAUGUUCUAGAAAUGGACAACAGAGGAUUGAGCAUCA
B6: chr3:36528868:36528981:+|CDS|ENSG00000144681|unk|total|mutant (ssRNA)
RNA: GGGAGUUCUACAGUCCGACGAUCAGAAUUGGCUUCUUUCCAGCCAACUUUGUUCAGAGACUACAACAAAAUGAGAAGAUUUUCCGAUGUGUCCGAACCUUCAUUGGGUGUAAGGAACAGGGGCAGAUAACACUGAAAGAGAAUCAACAGAGGAUUGAGCAUCA
B7: chr1:51287257:51288280:-|three_prime_utr|ENSG00000085831|control|control|control (ssRNA)
RNA: GGGAGUUCUACAGUCCGACGAUCCAUGGAGUCAAGGACACACUUUCGAAUCCAGGCAGCCACACUCCAAGCCAAGUCUUCCCUAGAGAACAGCAGCAGAUCCAUGGUCUCAUCAGUGUCCUUGUAGCUUUGUGCAGCAGUUCCCAACAGAGGAUUGAGCAUCA
B8: chr7:2664602:2664704:+|3pUTR|ENSG00000136295|msi1_unk|total|mutant (ssRNA)
RNA: GGGAGUUCUACAGUCCGACGAUCUCCUCCAGCCUCUGCCGGGCCAUGGCUGUAUGUACUGUCGCUGUGUUUUUUUGUUUUUUCCGAACUGGGUUUGGGGGCUGAUUUUUAUUUCUUUGGGGGCUUUUUUUCUUGGCAAAUACUCAACAGAGGAUUGAGCAUCA
B9: chr5:95898239:95898810:-|CDS|ENSG00000118985|control|control|control (ssRNA)
RNA: GGGAGUUCUACAGUCCGACGAUCGUUGACAGUUUUAGUCAAAACGAUAGUAUCUAUGAGGACCAGCAAGACAAAUAUACCUCUAGGACUUCUCUGGAAACCUUACCCCCUGGUUCCGUUCUACUAAAGUGUCCAAAGCCUAUGCAACAGAGGAUUGAGCAUCA
B10: chr5:83943476:83943577:-|CDS|ENSG00000164176|msi1|FALSE|unique (ssRNA)
RNA: GGGAGUUCUACAGUCCGACGAUCAUAAAAAUAAUUUCAAAGAAAGAAGGCUGUGUGACUGACAUUUUUCUGCUCUUCUUUAUUAGGUUUUCCAGGGAAAUUUUGACAAUGACACUCACAGAAAAAAUGUCAUCGACCCUCCCACAACAGAGGAUUGAGCAUCA
B11: chr15:66548596:66548706:+|3pUTR|ENSG00000174442|unk|FALSE|unique (ssRNA)
RNA: GGGAGUUCUACAGUCCGACGAUCUAGCAAGGGCUCUGAAAUGACAAAGAGAACGAGCACCACAAAUGAGAACAGGAUCAUUUUAGUAAAUACAGCUUUAUCCCAAAAGCUUUAACUGUAUUGGGAAAACUUAAAAAAUAGCAUCAACAGAGGAUUGAGCAUCA
B12: chr10:121957106:121957207:-|3pUTR|ENSG00000107672|msi1|FALSE|bound_elsewhere (ssRNA)
RNA: GGGAGUUCUACAGUCCGACGAUCUGUAUCGUACAUAUUGUAUGAUUCAACAUUUUUAAAGGCAGAUUGUUUUUAGUAAAAUGUAGCUUUUGAUAGUUAAUAAAUUUGUCAUGGUUGUCUUUGAUUAAAGGAAACUCACCGCCACAACAGAGGAUUGAGCAUCA
B13: chr1:31179744:31181702:-|three_prime_utr|ENSG00000084628|control|control|control (ssRNA)
RNA: GGGAGUUCUACAGUCCGACGAUCUCAGACCCAUCCCAUCCCACCACACUCACUCACCAGCUCUGGGGAAAGCUACUGUGAACUAGGAGCAGGAUUCCUGGGUUCUAAUCGCAGGUCCAUCACUGACUGUGACGUCUAGCAAAGCAACAGAGGAUUGAGCAUCA
B14: chr10:117284474:117284575:-|CDS|ENSG00000165650|msi1|total|mutant (ssRNA)
RNA: GGGAGUUCUACAGUCCGACGAUCAUUGCAUUGUGGUGCAGGGAUCCUUUCAAGUUGGGAGGUCUCAUCUGUUUGGGGCAUGUCCGUUUAAAACUUGAAGAUGUGGCUUCCGGAUGCCCCGCUACAUCAAACACGGAAUACCUUCAACAGAGGAUUGAGCAUCA
B15: chr1:22530103:22530204:+|3pUTR|ENSG00000184677|msi1|FALSE|unique (ssRNA)
RNA: GGGAGUUCUACAGUCCGACGAUCCAUGUAUAGAGUGGGCAGGCGGUUCCAGGGAGACAAGCAGCAUGUUAUUAAAUUGGGCCUAGGCAGUUGGACGAUAAUGGAGAAAAAGCAGGGAUGCUAUAAUGAGUCCUCCCCAAGGGUCAACAGAGGAUUGAGCAUCA
B16: chr19:35125195:35125507:-|CDS|ENSG00000153902|control|control|control (ssRNA)
RNA: GGGAGUUCUACAGUCCGACGAUCCUCGCGCGGUGCCCACGUCUUCCAGCCACUGCUCAUCGCCAGGGACCAGCUGGCCAUCCUAGGCAGCGACUUCGCCUUCAGCCAGGUCCUCCGCCUUGAGCCUGACAAGGGGCUCCUGGACAACAGAGGAUUGAGCAUCA
B17: chr15:55376998:55377117:-|CDS|ENSG00000260916|unk|total|mutant (ssRNA)
RNA: GGGAGUUCUACAGUCCGACGAUCUAUCUAUAUUGGAACUGCCAGUGAUGAUUCUGAUAUUGUUACCCUUGAGCCACCUAAGUCCGAAGAAAUUGGAAAUCAAGAAGUUGUCAUUGUUGAAGAAGCACAGAGUUCAGAAGACUUCAACAGAGGAUUGAGCAUCA
B18: chr8:96261867:96261970:+|5pUTR|ENSG00000156471|unk|total|mutant (ssRNA)
RNA: GGGAGUUCUACAGUCCGACGAUCUCCUUCCCUCUGCUCCCAGCCUUUGCUGGGCGCCAGACCCGGCUUUGCCGUCCGGCUAUCCGCCUACUGUGGCCCGUCACCCCCGGGGUCCCGGCCUUCUCGGGCUGGGGCCGCCGCCACCAACAGAGGAUUGAGCAUCA
B19: chr8:97276997:97277102:-|CDS|ENSG00000180543|unk|FALSE|unique (ssRNA)
RNA: GGGAGUUCUACAGUCCGACGAUCAUCCCGGGCUUCUGGGGGCAAGCAUUUCAGAACCAUCCCCAGCUAGCAUCCUUUCUGAAUAGCCAAGAGAAAGAGGUACUGAGCUACUUAAACAGCUUGGAAGUGGAAGAGCUCGGCCUUCAACAGAGGAUUGAGCAUCA
B20: chr10:29523788:29523889:-|CDS|ENSG00000197321|unk|FALSE|unique (ssRNA)
RNA: GGGAGUUCUACAGUCCGACGAUCAAUGCAAGUGCCACUGACUAUAAGUUUUCUUCUUCAAUAGAAAAUUCGGACUCUCCAGUUAGAAGCAUUCUGAAAUCGCAAGCUUGGCAGCCUUUGGUAGAGGGUAGCGAGAACAAGGGACAACAGAGGAUUGAGCAUCA
B21: ENSG00000107863:be:win_4301|CDS|ENSG00000107863|bound_else_gene|NA|bound_elsewhere_windowed (ssRNA)
RNA: GGGAGUUCUACAGUCCGACGAUCAAGAUGAACUGGACAAUGUAUUUUUUAAGAAAGAAAAUGUGGAACAGUGUCACAAUGAUACUAAAGAGGAGUCCAAAAAAGAAAGUGAGACACUGGGCAGAAAACAGAAGAUCAUCAUUGCAACAGAGGAUUGAGCAUCA
B22: chr1:153662446:153662560:-|CDS|ENSG00000143621|unk|total|mutant (ssRNA)
RNA: GGGAGUUCUACAGUCCGACGAUCAAUCACCUUUUUCUCUUUCCCCGAUCUUGCUUCUGAAAUAUCUACCUGGGAUGGAGUGACCGUAACACCUUCAGAAAAGGCUUAUGAGAAGCCACCAGAGAAGAAGGAAGGAGAGGAAGACAACAGAGGAUUGAGCAUCA

Some of the results follow.

This test concerns the target MSI1 full-length (mouse, UniProt Q61474 1-362). In words: nsRBNS (natural sequence RNA bind-n-seq); RBNS binding buffer (assumed for nsRBNS): 25 mM Tris pH 7.5, 150 mM KCl, 3 mM MgCl2, 0.01% Triton X-100, 500 ug/ml BSA, 20 U/ml SUPERase-In, 4 C; UNK is unkempt and MSI1 is Musashi-1; names of the RNAs are library labels; protein concentration not given here; high values mean tight binding.
Chain of UniProt Q61474 (Q61474 whole entry): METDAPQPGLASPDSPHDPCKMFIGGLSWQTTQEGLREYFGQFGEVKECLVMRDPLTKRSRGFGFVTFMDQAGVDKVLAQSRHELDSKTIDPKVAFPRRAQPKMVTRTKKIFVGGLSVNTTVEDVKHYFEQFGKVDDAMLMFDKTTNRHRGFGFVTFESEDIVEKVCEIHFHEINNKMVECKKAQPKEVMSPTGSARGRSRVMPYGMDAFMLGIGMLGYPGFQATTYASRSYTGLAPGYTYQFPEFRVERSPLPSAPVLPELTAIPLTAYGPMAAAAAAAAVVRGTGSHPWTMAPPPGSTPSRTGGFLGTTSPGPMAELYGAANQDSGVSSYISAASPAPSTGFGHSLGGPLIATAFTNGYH
As for B1, the binding signal stood at 0.921 enrichment R.

As for B2, the binding signal was 0.399 enrichment R.

The molecule B3 displayed a binding signal of 11.6 enrichment R.

The molecule B4 had a binding signal of 0.657 enrichment R.

B5 showed a binding signal of 3.04 enrichment R.

Molecule B6 returned a binding signal of 0.331 enrichment R.

For B7, the binding signal turned out to be 0.554 enrichment R.

The molecule B8 returned a binding signal of 0.777 enrichment R.

Turning to B9, the binding signal turned out to be 0.621 enrichment R.

The molecule B10 registered a binding signal of 0.736 enrichment R.

B11 gave a binding signal of 8.63 enrichment R.

The molecule B12 registered a binding signal of 17.9 enrichment R.

Turning to B13, the binding signal is 0.495 enrichment R.

As for B14, the binding signal is 0.282 enrichment R.

As for B15, the binding signal worked out at 0.983 enrichment R.

B16 registered a binding signal of 0.388 enrichment R.

For B17, the binding signal amounted to 0.246 enrichment R.

The molecule B18 had a binding signal of 0.411 enrichment R.

Consider B19, for which the binding signal stood at 0.434 enrichment R.

Turning to B20, the binding signal stood at 0.615 enrichment R.

Molecule B21 gave a binding signal of 0.484 enrichment R.

In turn, B22 came in with a binding signal of 0.401 enrichment R.
